Laboratory results from PubChem BioAssay AID624296 (National Center for Advancing Translational Sciences (NCATS), 2012).
Among all 350,000 compounds or so, about 9,900 (2.8%) were called active. The inconclusive results got no clear call from the source; some entries with a clear call stand among them for comparison. Calls come from the whole dose curve; as a rule, active = well fitted activation curve with a large enough effect; inconclusive = small, poorly fitted or top-dose-only effect; inactive = no such curve, though single readings can be large or run the other way. No potency is given beside an inconclusive call; the fits are too rough.

Assay: A quantitative high throughput screen for small molecules that induce DNA re-replication in MCF 10a normal breast cells. Note: nearly all actives have a fitted effect of over 50% in size.
Settings: MCF 10A DNA re-replication, Hoechst nuclear intensity, 48 h; series mostly up to 46.1 µM
Potency is the fitted concentration of half-maximal effect; tags give direction and shape of the fitted curve.

Structure (SMILES)	Potency
CC(=NNC(=S)N1CC2CCC(CC2)C1)c1cnccn1	inconclusive [activator, partial curve, poor fit]
CC(C)c1ccc(NC(=O)Cc2ccc(NC3=NC4CS(=O)(=O)CC4S3)cc2)cc1 (centres undefined)	inactive
COc1ccc(-c2csc(/C(C#N)=C\c3ccc(OC)c([N+](=O)[O-])c3)n2)cc1	inconclusive [activator, single point]
CC(C)C1Cc2ccccc2-c2[nH]c(=S)[nH]c(=O)c21 (centres undefined)	inconclusive [activator, full curve, poor fit]
CSc1nc(N2CCN(Cc3ccc4c(c3)OCO4)CC2)c2ccccc2n1	inconclusive [activator, full curve, poor fit]
CC(C)[C@H](NC(=O)OC(C)(C)C)c1nnc(SCC(=O)Nc2ccc(Br)cc2)o1	inactive
Cc1c(C(=O)OCCOC(C)C)[nH]c2c1C(=O)CC(c1ccco1)C2 (centres undefined)	inconclusive [activator, partial curve, poor fit]
Cc1sc2ncnc(N3CCC(C(=O)N(C)CC(=O)Nc4ccccc4Cl)CC3)c2c1C	inactive
Cc1nc(NC(=O)/C=C/c2ccccc2)sc1C(=O)Nc1ccccc1	active: 20.6 µM
COc1ccc(/C=C/C(=O)C2CC2)cc1Cn1nc(C)c([N+](=O)[O-])c1C	inconclusive [activator, partial curve, poor fit]
COC(=O)[C@]1(Cc2ccccc2)N[C@H](CN(C)C(=O)Nc2ccc(C)cc2)[C@@H]2C(=O)N(C)C(=O)[C@@H]21	inconclusive [activator, full curve, poor fit]
Cc1ccc(C)c(NS(=O)(=O)c2cc(C(=O)Nc3cccc(N(C)S(C)(=O)=O)c3)ccc2C)c1	inconclusive [activator, partial curve, poor fit]
CCOc1ccc(NC(=O)COn2nnc3ccc(S(=O)(=O)N4CCOCC4)cc32)cc1	inconclusive [activator, single point]
O=Cc1ccc(OC(=O)c2cccnc2)cc1	inconclusive [activator, full curve, poor fit]
CCOC(=O)C1=CN(Cc2cccc(I)c2)S(=O)(=O)N(C)C1C (centres undefined)	inconclusive [activator, single point]
CCCN(CC(=O)Nc1ccccc1C)C(=O)c1ccc2[nH]c3c(c2c1)CC(C)CC3 (centres undefined)	active: 1.3 µM
O=C1CCN(Cc2ccccc2)C=C1c1ccc2ccccc2c1	inactive
O=C(CSc1nc2nc(-c3cccs3)cc(C(F)(F)F)c2c(=O)[nH]1)Nc1c(F)c(F)c(F)c(F)c1F	inconclusive [activator, partial curve]
CCOc1ccc(-c2noc(CCC(=O)O)n2)cc1	inconclusive [activator, partial curve, poor fit]
O=C(N/C(=C\c1ccc(Cl)cc1)C(=O)N1CCOCC1)c1ccc([N+](=O)[O-])cc1	inconclusive [activator, partial curve, poor fit]
CCCSc1nnc(NC(=O)Nc2ccc(F)cc2)s1	inconclusive [activator, partial curve]
Cc1ccc(OCC(=O)Nc2ccc(CN3CCOCC3)cc2)cc1C	inconclusive [activator, full curve, poor fit]

Structure (SMILES)	Potency
COc1cc(NC(=S)N2CCN(S(=O)(=O)c3ccccc3)CC2)cc(OC)c1	inactive
Cc1ccc(OCc2nnc(SCC(=O)Nc3cccc4ccccc34)n2-c2ccccc2)cc1	active: 18.4 µM
Cc1ccccc1Cn1nnc(C(=O)Nc2cccc(C)c2C)c1N	active: 14.6 µM
CN(CC(=O)NCCc1ccccc1)S(=O)(=O)c1ccc(Br)s1	inactive
CC(=O)NC(NC(=S)Nc1ccc(N=Nc2ccccc2C)cc1C)C(Cl)(Cl)Cl (centres undefined)	inconclusive [activator, partial curve, poor fit]
Cc1ccc(S(=O)(=O)NCCC(=O)Nc2ccc(Cl)c(Cl)c2)cc1	inconclusive [activator, single point]
CCc1nc(SCC(=O)Nc2ccc(N(C)C)cc2)n[nH]1	inactive
COc1ccc(/C=C/C(O)=C2/C(=O)NC3(C)CC2c2ccccc2O3)c(OC)c1OC (centres undefined)	inconclusive [activator, single point]
O=C(COc1ccc(S(=O)(=O)N2CCOCC2)cc1Cl)N1CCCC1	inactive
O=C(Cc1ccc(F)cc1)N[C@@H]1c2ccccc2CC[C@@H]1O	inconclusive [activator, single point]
COc1ccccc1C(=O)NCCC(=O)N(C)CC(=O)Nc1c(Cl)cccc1Cl	inactive
COc1ccc(OC)c(NC(=O)CCN2CCN(C/C=C/c3ccccc3)CC2)c1	inactive
CCn1c(SCC(=O)N2CCN(C(=O)c3ccco3)CC2)nnc1C(C)C	inconclusive [activator, single point]
c1ccc(-c2cn3nc(-c4ccccc4)sc3n2)cc1	inactive
COc1ccc(C(C)NC(=O)Nc2ccc(C(C)=O)cc2)cc1OC (centres undefined)	inconclusive [activator, partial curve, poor fit]
O=[N+]([O-])c1nn(-c2ccccc2)n(O)c1=NCCc1ccccc1	inconclusive [activator, single point]
COn1c(=S)[nH]c2ccccc2c1=O	inactive
CCOC(=O)c1sc(C)c2c1NC1(CCCCC1)NC2=O	inconclusive [activator, single point]
O=C(Nc1cc(S(=O)(=O)N2CCOCC2)ccc1N1CCOCC1)c1ccccc1Cl	inactive
COc1cccc(OC)c1C(=O)OCC(=O)Nc1ccc(OC(F)(F)F)cc1	inactive
Cc1cc(NC(c2ccc(Cl)cc2)c2ccc3cccnc3c2O)no1 (centres undefined)	inconclusive [activator, single point]
Cc1ccc(-n2c(-c3ccccc3)c[n+]3c2CCC3)cc1	inactive
